# From the supplement of paper PMC8728848
# The other results are listed elsewhere or left out.
# Legend:
# Experiment in all cases: glycan array binding signal (z-score within array); higher = stronger binding
# Settings in all cases: glycan notation: IUPAC condensed, linker removed
# [1] = biological target: Neu5Ac(a2-6)Gal(b1-4)GlcNAc(b1-2)Man(a1-3)[GlcNAc(b1-4)][Neu5Ac(a2-6)Gal(b1-4)GlcNAc(b1-2)Man(a1-6)]Man(b1-4)GlcNAc(b1-4)GlcNAc
# Outline: (§1)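 Arrays were curated from the Consortium for Functional Glycomics database, 3228 in total, and kept only where the protein sequence was available. Binding is expressed as a within-array Z-score. This score was averaged across arrays of the same protein sequence at different concentrations or buffers and across linkers, and negative values can be read as non-binding.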
# [2] = biological target: Neu5Ac(a2-6)Gal(b1-4)GlcNAc(b1-2)Man(a1-3)[Man(a1-6)]Man(b1-4)GlcNAc(b1-4)GlcNAc
# Outline: as §1
# [3] = biological target: Neu5Ac(a2-6)Gal(b1-4)GlcNAc(b1-2)Man(a1-3)[Neu5Ac(a2-3)Gal(b1-4)GlcNAc(b1-2)Man(a1-6)]Man(b1-4)GlcNAc(b1-4)GlcNAc
# Outline: as §1
# [4] = biological target: Neu5Ac(a2-6)Gal(b1-4)GlcNAc(b1-2)Man(a1-3)[Neu5Ac(a2-6)Gal(b1-4)GlcNAc(b1-2)Man(a1-6)]Man(b1-4)GlcNAc(b1-4)GlcNAc
# Outline: as §1
# [5] = biological target: Neu5Ac(a2-6)Gal(b1-4)GlcNAc(b1-2)Man(a1-3)[Neu5Ac(a2-6)Gal(b1-4)GlcNAc(b1-2)Man(a1-6)]Man(b1-4)GlcNAc(b1-4)[Fuc(a1-6)]GlcNAc
# Outline: as §1
# [6] = biological target: Neu5Ac(a2-6)Gal(b1-4)GlcNAc(b1-2)Man(a1-6)Man(b1-4)GlcNAc(b1-4)GlcNAc
# Outline: as §1
# [7] = biological target: Neu5Ac(a2-6)Gal(b1-4)GlcNAc(b1-2)Man(a1-6)[Gal(b1-4)GlcNAc(b1-2)Man(a1-3)]Man(b1-4)GlcNAc(b1-4)GlcNAc
# Outline: as §1
# [8] = biological target: Neu5Ac(a2-6)Gal(b1-4)GlcNAc(b1-2)Man(a1-6)[GlcNAc(b1-2)Man(a1-3)]Man(b1-4)GlcNAc(b1-4)GlcNAc
# Outline: as §1
# [9] = biological target: Neu5Ac(a2-6)Gal(b1-4)GlcNAc(b1-2)Man(a1-6)[Man(a1-3)]Man(b1-4)GlcNAc(b1-4)GlcNAc
# Outline: as §1
# [10] = biological target: Neu5Ac(a2-6)Gal(b1-4)GlcNAc(b1-2)[Neu5Ac(a2-6)Gal(b1-4)GlcNAc(b1-4)]Man(a1-3)[GlcNAc(b1-4)][Neu5Ac(a2-6)Gal(b1-4)GlcNAc(b1-2)[Neu5Ac(a2-6)Gal(b1-4)GlcNAc(b1-6)]Man(a1-6)]Man(b1-4)GlcNAc(b1-4)GlcNAc
# Outline: as §1
# [11] = biological target: Neu5Ac(a2-6)Gal(b1-4)GlcNAc(b1-2)[Neu5Ac(a2-6)Gal(b1-4)GlcNAc(b1-4)]Man(a1-3)[GlcNAc(b1-4)][Neu5Ac(a2-6)Gal(b1-4)GlcNAc(b1-4)Man(a1-6)]Man(b1-4)GlcNAc(b1-4)GlcNAc
# Outline: as §1
# [12] = biological target: Neu5Ac(a2-6)Gal(b1-4)GlcNAc(b1-2)[Neu5Ac(a2-6)Gal(b1-4)GlcNAc(b1-6)]Man(a1-6)[Neu5Ac(a2-6)Gal(b1-4)GlcNAc(b1-2)Man(a1-3)][GlcNAc(b1-4)]Man(b1-4)GlcNAc(b1-4)GlcNAc
# Outline: as §1
# [13] = biological target: Neu5Ac(a2-6)Gal(b1-4)GlcNAc(b1-3)Gal(b1-3)GlcNAc
# Outline: as §1
# [14] = biological target: Neu5Ac(a2-6)Gal(b1-4)GlcNAc(b1-3)Gal(b1-4)GlcNAc
# Outline: as §1
# [15] = biological target: Neu5Ac(a2-6)Gal(b1-4)GlcNAc(b1-3)Gal(b1-4)GlcNAc(b1-2)Man(a1-3)[Neu5Ac(a2-6)Gal(b1-4)GlcNAc(b1-3)Gal(b1-4)GlcNAc(b1-2)Man(a1-6)]GalNAc
# Outline: as §1
# [16] = biological target: Neu5Ac(a2-6)Gal(b1-4)GlcNAc(b1-3)Gal(b1-4)GlcNAc(b1-3)Gal(b1-4)GlcNAc
# Outline: as §1
# [17] = biological target: Neu5Ac(a2-6)Gal(b1-4)GlcNAc(b1-3)Gal(b1-4)GlcNAc(b1-3)Gal(b1-4)GlcNAc(b1-2)Man(a1-3)[Neu5Ac(a2-6)Gal(b1-4)GlcNAc(b1-3)Gal(b1-4)GlcNAc(b1-3)Gal(b1-4)GlcNAc(b1-2)Man(a1-6)]GalNAc
# Outline: as §1
# [18] = biological target: Neu5Ac(a2-6)Gal(b1-4)GlcNAc(b1-3)Gal(b1-4)GlcNAc(b1-3)GalNAc
# Outline: as §1
# [19] = biological target: Neu5Ac(a2-6)Gal(b1-4)GlcNAc(b1-3)Gal(b1-4)GlcNAc(b1-3)[Neu5Ac(a2-6)Gal(b1-4)GlcNAc(b1-3)Gal(b1-4)GlcNAc(b1-6)]GalNAc
# Outline: as §1
# [20] = biological target: Neu5Ac(a2-6)Gal(b1-4)GlcNAc(b1-3)Gal(b1-4)GlcNAc(b1-6)[Gal(b1-3)]GalNAc
# Outline: as §1
# [21] = biological target: Neu5Ac(a2-6)Gal(b1-4)GlcNAc(b1-3)Gal(b1-4)[Fuc(a1-3)]GlcNAc(b1-3)Gal(b1-4)[Fuc(a1-3)]GlcNAc
# Outline: as §1
# [22] = biological target: Neu5Ac(a2-6)Gal(b1-4)GlcNAc(b1-3)GalNAc
# Outline: as §1
# [23] = biological target: Neu5Ac(a2-6)Gal(b1-4)GlcNAc(b1-3)[Neu5Ac(a2-6)Gal(b1-4)GlcNAc(b1-6)]GalNAc
# Outline: as §1
# [24] = biological target: Neu5Ac(a2-6)Gal(b1-4)GlcNAc(b1-6)GalNAc
# Outline: as §1
# [25] = biological target: Neu5Ac(a2-6)Gal(b1-4)GlcNAc(b1-6)[Gal(b1-3)GlcNAc(b1-3)]Gal(b1-4)Glc
# Outline: as §1
# [26] = biological target: Neu5Ac(a2-6)Gal(b1-4)GlcNAc(b1-6)[Gal(b1-3)]GalNAc
# Outline: as §1
# [27] = biological target: Neu5Ac(a2-6)Gal(b1-4)GlcNAc6S
# Outline: as §1
# [28] = biological target: Neu5Ac(a2-6)GalNAc
# Outline: as §1
# [29] = biological target: Neu5Ac(a2-6)GalNAc(b1-4)GlcNAc
# Outline: as §1
# [30] = biological target: Neu5Ac(a2-6)GalNAc(b1-4)GlcNAc6S
# Outline: as §1
# [31] = biological target: Neu5Ac(a2-6)GlcNAc(b1-4)GlcNAc
# Outline: as §1
binder,measurement,setting,value
"CC1G-10077 (Coprinopsis cinerea), A8NDT7 (protein) MALNEGVYWIRNSRFTNKVLDLDAANVAKGTSILDFNEHGTFNENHNQLWIVERFQSRDTYLIRSVHSNLVLDLSQGLSANGTPILCWTQHGGTNQQWRIEWVKDDNKTPLYRIVSVATGTAISHNEDDSSAYTVAWSVDDGPKQLWSFDPFVTPLLYRLRVKSTSRVLDLAAASADNGTLALAWEQHTAITKRNQLWWLPYRSGAEEYTIQCLETSTVADLSGGNSGNGTPIYGWQSHGGRNQQWKFEPTSDSGDYYHIKNVEGGSVMDAYMNDSQKRVGGWSNNGGDNQKWLLDPLPSPGPGWVLIQNGGTGKFLCSTPSGDIGTADGPETVYDYSVQWRFIQREYTGVYHVVNRATGAYLRQIGTSMPSIGLAEENDDELKDWWMLETYDNSEIGLASIISRWTGNVLDHYGGVSVQALDNNTENSYRSWAIIPARDWLTSFSLVNGQGGLCLAAQYAREETRLSTTANVNDFHAQWVFRKPSGSSGYTIQNKYNNHYVGGTSARWELVVCCNKYFGIRNTSTQKYLAIEDGQVTFQDQDMTDRKQCWELCSGRATDTSGNDYDLIYMDDDLLEVMIPWVGDKQGDLKHYIEKRATKKPPKDKGGWQLPAAGLIKKPKFNDIRQLLQELIEQWEWDVVNEEREQIQTLVSIDEAEARRLLGRRPHPDIVAAYQRSRSSTLFRIDRQGYFNIAGDRYVNIQGQYGDDSYFHIALPVGVRFGREQIRRFLRDSLDRSTSVTITPTTCKPPSGGPDYNRDPDSDGDNSWIKWTIAVVGTSAIKHSEL",glycan array binding signal (z-score),[1],-0.487
same,glycan array binding signal (z-score),[2],-0.4
same,glycan array binding signal (z-score),[3],-0.447
same,glycan array binding signal (z-score),[4],-0.326
same,glycan array binding signal (z-score),[5],-0.509
same,glycan array binding signal (z-score),[6],-0.428
same,glycan array binding signal (z-score),[7],0.398
same,glycan array binding signal (z-score),[8],-0.37
same,glycan array binding signal (z-score),[9],-0.503
same,glycan array binding signal (z-score),[10],-2.17
same,glycan array binding signal (z-score),[11],-1.09
same,glycan array binding signal (z-score),[12],-0.462
same,glycan array binding signal (z-score),[13],-0.459
same,glycan array binding signal (z-score),[14],-0.463
same,glycan array binding signal (z-score),[15],-0.105
same,glycan array binding signal (z-score),[16],-0.379
same,glycan array binding signal (z-score),[17],-0.354
same,glycan array binding signal (z-score),[18],-0.516
same,glycan array binding signal (z-score),[19],-0.428
same,glycan array binding signal (z-score),[20],-0.355
same,glycan array binding signal (z-score),[21],-0.434
same,glycan array binding signal (z-score),[22],-0.494
same,glycan array binding signal (z-score),[23],-0.461
same,glycan array binding signal (z-score),[24],-0.437
same,glycan array binding signal (z-score),[25],-0.06
same,glycan array binding signal (z-score),[26],-0.494
same,glycan array binding signal (z-score),[27],-0.453
same,glycan array binding signal (z-score),[28],-0.497
same,glycan array binding signal (z-score),[29],-0.403
same,glycan array binding signal (z-score),[30],-0.225
same,glycan array binding signal (z-score),[31],-0.431
